Data: PubChem BioAssay AID1508642 (National Center for Advancing Translational Sciences (NCATS), 2021)
The whole screen tested about 43,000 compounds, of which about 200 (0.47%) were called active. About 12% were inconclusive and are not listed. Calls follow the shape of the dose curve; as a rule, active = well fitted cell-killing curve with a large enough effect; inconclusive = small, poorly fitted or top-dose-only effect, or effect the other way; inactive = flat fitted curve, though single readings scatter. The list shows a part of the results.

experiment: Cell viability qHTS assay in S16 Pmp22-F2sN cells; settings: S16 Pmp22-F2sN Schwann cells (luciferase reporters placed in the Pmp22 gene) viability, CellTiter-Glo, 24 h; series mostly up to 57.5 µM; activity change, negative = cytotoxicity: at the top concentration; also: nearly all actives have a fitted effect of over 65% in size
Method in brief: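 Luminescence from CellTiter-Glo, read by CCD camera after a 15 min room-temperature incubation, served as the viability signal. Reporter Schwann cells (S16 Pmp22-F2sN) had been treated with pin-transferred compounds for 24 h at 37C.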
% is scaled to controls: 0 for no effect and ±100 for the full control effect.

SMILES | activity change, negative = cytotoxicity
Cc1ccc(Cc2nc3ccccc3nc2SCC(=O)NCCC(C)C)cc1 | inactive: 15.5%
Cc1ccc(Cc2c(C)nc3nc(SCC(=O)NC(C)c4ccccc4)nn3c2C)cc1 (stereo unspecified) | inactive: -16.7%
COc1cccc(-c2nc(SCc3cc(=O)c4ccc(C)c(C)c4[nH]3)n[nH]2)c1 | inactive: -19.3%
CCOc1ccc(NC(=O)Cn2cc(C(=O)c3ccc(CC)cc3)c(=O)c3cc(C)ccc32)cc1 | inactive: 0.259%
Cn1c(=O)c2c(-c3ccccc3)n3c4ccccc4nc(-c4ccccc4)c3c2n(C)c1=O | inactive: -11.6%
COC(=O)c1cc2occc2n1Cc1nc(-c2ccccc2F)oc1C | inactive: -3%
COc1ccc(C(=O)NCC(c2cccnc2)N2CCc3ccccc3C2)cc1OC (stereo unspecified) | inactive: -7.6%
COc1ccc(S(=O)(=O)c2nnn(-c3cc(Cl)c(OC)cc3OC)c2C)cc1 | inactive: 8.13%
O=C(CSc1nc2c([nH]c3ccccc32)c(=O)n1-c1ccc(F)cc1)NCc1ccccc1 | inactive: 19.4%
CCOCCCn1c(SCC(=O)Nc2ccc(C(C)C)cc2)nc2c(sc3ccccc32)c1=O | inactive: 7.97%
COc1ccc(N2CCN(C(=O)CCNS(=O)(=O)c3ccc4c(c3)CCN4C(=O)C3CC3)CC2)cc1 | inactive: -12.5%
COc1ccc(CNC(=O)c2ccc(Cn3c(=O)c4cccn4c4cccnc43)cc2)cc1OC | inactive: 1.06%
CCOCCCNC(=O)NC(CCC(C)C)c1c(-n2cccc2)sc2c1CCN(C)C2 (stereo unspecified) | inactive: 8.77%
O=C(NCc1cccc(F)c1)C1CCN(C(=O)c2sccc2-n2cccc2)CC1 | inactive: 4.16%
O=C(Nc1cc(NC(=O)c2ccccc2Cl)ccc1Cl)c1ccccc1 | inactive: -18.9%
CC(C)(C)C(=O)CSc1nc2ccsc2c(=O)n1Cc1ccccc1F | inactive: -15.5%
Cc1ccc(C)c(-c2nc(Cn3c(=O)cc(-c4ccccc4)c4c(C)nn(C)c43)c(C)o2)c1 | inactive: -2.28%
CN1CCN(CCCNC(=O)c2cnn(-c3ccccc3)c2-n2cccc2)CC1 | inactive: 7.45%
O=c1c2sc3ccccc3c2n(Cc2cccc(C(F)(F)F)c2)c(=O)n1Cc1ccco1 | inactive: -2.15%
NS(=O)(=O)c1ccc(CCNC(=O)c2nc(SCc3ccccc3F)ncc2Cl)cc1 | inactive: -0.22%
COc1cccc(C2C(C(=O)Nc3ccccc3OC)=C(C)Nc3nc4ccccc4n32)c1 (stereo unspecified) | inactive: 4.26%
CCc1ccccc1Nc1ncnc2c1nc1n2CCCC1 | inactive: 4.78%
Cc1cc(=O)c2cc(C(=O)Nc3ccccc3)ccc2[nH]1 | inactive: 6.22%
Cc1ccc2cccc(NC(=O)c3ccc(-c4ccc(Br)cc4)o3)c2n1 | inactive: 5.19%

SMILES | activity change, negative = cytotoxicity
CCc1ccc(-n2c(-c3ccccc3)c(C)n3c4c(=O)n(C)c(=O)n(C)c4nc23)cc1 | inactive: 4.6%
COc1cccc(N2C(=O)N(CC(=O)NCc3cccc(OC)c3OC)c3ccccc3S2(=O)=O)c1 | inactive: 25.7%
Cc1ccc(-c2csc(/C(C#N)=C/c3ccccc3Cl)n2)cc1 | inactive: 5.6%
Cc1cn2c(=O)cc(COc3ccccc3NC(=O)c3ccccc3C)nc2s1 | inactive: 14.4%
COc1ccccc1N1CCN(C(=O)CCS(=O)(=O)c2cc(Br)cc3c2N(C(=O)C2CC2)CC3)CC1 | inactive: -2.78%
CCOC(=O)c1c(C)oc2nc(C)nc(N3CCN(c4ccccc4)CC3)c12 | inactive: 7.98%
O=C(Nc1ccc(F)cc1)c1cccn1-c1nnc(N2CCCCC2)s1 | inactive: 2.15%
COc1ccc2oc(=O)c(C(=O)NCCc3c(C)[nH]c4ccc(Br)cc34)cc2c1 | inactive: 10%
O=C(CSc1nnc(CNC(=O)c2ccccc2)n1-c1cccc(Cl)c1)Nc1ccccc1F | inactive: -6.81%
CCn1c(SCc2ccccc2Cl)nc(=O)c2c(C(=O)OC)cc(C3CC3)nc21 | inactive: -0.396%
CNC(=O)COc1ccc(NC(=O)c2ccc(-c3nn(C)c(=O)c4ccccc34)cc2)cc1 | inactive: 26.5%
Cc1nn(S(=O)(=O)c2ccc(Cl)cc2)c(C)c1S(=O)(=O)N1CCCCCC1 | inactive: -2.68%
CC(=O)Nc1nonc1-c1nnc(SCc2ccc(Cl)cc2)n1C | inactive: -0.164%
CCOC(=O)c1c(NC(=O)c2cc(=O)c3c(C)cc(C)cc3o2)sc(C(C)=O)c1C | inactive: -0.561%
Cc1cc(C)c2c(-n3cccc3)c(C(=O)NCCCN3CCCCC3C)sc2n1 (stereo unspecified) | inactive: -0.301%
CCCOc1ccc(C(=O)Nc2cc(-c3nc4cc(C)cc(C)c4o3)ccc2C)cc1 | inactive: 4.93%
Cc1ccc(-c2noc(-c3ccc(N4CCCCC4)c([N+](=O)[O-])c3)n2)cc1 | inactive: 8.27%
CC(C)NC(=O)C1CCN(C(=O)N2CCOc3ccc(Cl)cc32)CC1 | inactive: 4.83%
Clc1ccc(CCNC(c2nnc(-c3ccccc3)o2)c2ccccc2Cl)cc1 (stereo unspecified) | inactive: -21.6%
COc1cc(NC(=O)CCn2cnc3ccccc3c2=O)cc(OC)c1 | inactive: -11.3%
CCOC(=O)c1ccccc1NC(=O)n1ncc2cc(Cl)ccc21 | inactive: -2.42%
CCc1cccc(C)c1NC(=O)c1cc(S(=O)(=O)N2CCOCC2)cn1C | inactive: -1.68%
CCCCSCCCNC(=O)c1cn(CC)c2ccc(S(=O)(=O)N3CCCCCC3)cc2c1=O | inactive: -6.17%
COc1ccc(OCCn2c(C)nc3cc(C)c(C)cc32)cc1 | inactive: -15.7%

SMILES | activity change, negative = cytotoxicity
CCOc1cccc(C(=O)Nc2ccc3oc(-c4cccnc4)nc3c2)c1 | inactive: -3.7%
COc1ccc(-c2c(C)nn3c(N4CCN(c5ccccc5)CC4)cc(C)nc23)cc1OC | inactive: -12.7%
COc1ccc(NC(=O)CC2C(=O)N(c3ccc(F)cc3)C(=O)N2Cc2ccc3c(c2)OCO3)cc1 (stereo unspecified) | inactive: 6.1%
CCCn1c(=N)c(C(=O)NC2CCCC2)cc2c(=O)n3cccc(C)c3nc21 | inactive: 3.2%
COc1ccc(/C=C(/C#N)c2nc(-c3ccc(-c4ccccc4)cc3)cs2)cc1OC | inactive: 0.795%
CCOC(=O)c1cccc(NC(=O)Cn2c(=O)nc(-c3ccccc3F)c3cc(Cl)ccc32)c1 | inactive: 6.24%
CCn1c(=O)c2cc(C(=O)N(CC(C)C)CC(C)C)sc2c2ccccc21 | inactive: -9.61%
CCOc1ccc(CCNC(=O)c2csc3c2CCCCC3)cc1 | inactive: -18.9%
COc1cccc(CNC(=O)CCCN2C(=O)CCn3nc(-c4cccn4C)cc32)c1 | inactive: -10%
CCN(C(=O)CSc1nc2ccccc2n1CC(=O)NCc1ccc(OC)cc1)c1ccccc1 | inactive: 9.83%
CCOC(=O)c1cc(-c2ccccc2)n(CCC(=O)NC2CCCCC2)c1C | inactive: -0.505%
Cc1ccc2nc(CSc3nnc(NC(=O)c4cccc(Br)c4)s3)cc(=O)n2c1 | inactive: 15.8%
CCOC(=O)c1ccc(NC(=O)CN2c3ccccc3S(=O)(=O)c3ccccc32)cc1 | inactive: 3.33%
Cc1ccc(CNc2ncnc3c2nc2n3CCCC2)cc1 | inactive: -2.78%
Cc1cc(C)cc(Nc2cc(C)nc3nncn23)c1 | inactive: 2.81%
Cc1cccc(-c2nc3scc(CCNC(=O)c4ccc(Br)o4)n3n2)c1 | inactive: 0.621%
CCC(CC)C(=O)Nc1ccc(-c2cn3cccnc3n2)cc1 | inactive: 28%
CNC(=O)C1CCC(Cn2c(=O)c3sccc3n(CC(=O)NCc3cccc(OC)c3)c2=O)CC1 (stereo unspecified) | inactive: -1.66%
Cc1ccc(Nc2nnc(-c3cc4c(ccc5ccccc54)oc3=O)s2)cc1 | inactive: 4.7%
COc1cccc(C(=O)N2CCc3c([nH]c4ccccc34)C2c2ccc(SC)cc2)c1 (stereo unspecified) | inactive: 12.5%
COc1ccc(CNC(=O)CN2C(=O)COc3ccc(S(=O)(=O)NC4CCCC4)cc32)cc1 | inactive: 1.07%
CCOC(=O)N1CCN(c2ncc3c(n2)CC(c2ccccc2O)CC3=O)CC1 (stereo unspecified) | inactive: -4.8%
COc1ccc(/C=C\c2onc(C)c2S(=O)(=O)N2CCC(C(=O)Nc3cccc(Cl)c3)CC2)cc1 | inactive: -15.4%
COc1ccc(CCNC(=O)CCc2c(C)nc3cc(-c4ccccc4OC)nn3c2C)c(OC)c1 | inactive: -12.5%

SMILES | activity change, negative = cytotoxicity
CCc1cccc(C)c1NC(=O)CN(C)S(=O)(=O)c1cccc2nsnc12 | inactive: -22.3%
Cc1ccc(N2CCN(c3nc4c(S(=O)(=O)c5ccc(C)c(C)c5)nnn4c4ccccc34)CC2)c(C)c1 | inactive: -0.924%
Cc1c(C(=O)N(Cc2ccc(N(C)C)cc2)CC2CCCO2)oc2ccc(Br)cc12 (stereo unspecified) | inactive: 3.46%
CCOc1ccc2oc(=O)cc(CN3CCN(c4ccc(Cl)cc4)CC3)c2c1 | inactive: -19.7%
CCc1c(C)c2ccc(O)c(CN3CCN(c4ccccc4)CC3)c2oc1=O | inactive: 9.21%
CCOC(=O)c1c(NC(=O)COc2ccc(Cl)cc2C)sc(C(C)=O)c1C | inactive: 12.4%
Cc1ccc(S(=O)(=O)c2cn(C)c3cc(N4CCCCC4)c(F)cc3c2=O)cc1 | inactive: -18.6%
COc1ccc(C)cc1NC(=O)N1CCC(CN2CCC(C)CC2)CC1 | inactive: -0.306%
CCOC(=O)N1CCN(C(=O)CN(c2cc(C)ccc2OC)S(=O)(=O)c2ccc(C)cc2)CC1 | inactive: -1.26%
Cc1ccc(-c2nnc(Nc3cccc(C(F)(F)F)c3)c3ccccc23)cc1S(=O)(=O)N1CCOCC1 | inactive: -21.6%
CC(C)(C)c1ccc(-c2noc(CCC(=O)Nc3cccc(Cl)c3)n2)cc1 | inactive: 1.59%
Cc1ccc(-n2c(SCC(N)=O)nc3c([nH]c4ccccc43)c2=O)cc1 | inactive: 13.5%
Cc1cncn1CCc1nc2c3ccccc3nc(SCC(=O)Nc3ccccc3F)n2n1 | inactive: -8.49%
Cc1ccc(Cn2c(C)c(CNC(C)c3ccccc3)c(C(=O)O)c2C)cc1 (stereo unspecified) | inactive: 10.9%
CC1CCN(S(=O)(=O)c2nnc(NC(=O)c3cccc(F)c3)s2)CC1 | inactive: -23.7%
COC(=O)c1sc2cccc(F)c2c1S(=O)(=O)N1CCN(c2ccc(C)cc2C)CC1 | inactive: -5.38%
COc1nc(-c2ccc(C)cc2)ccc1-c1noc(-c2ccc(C(C)(C)C)cc2)n1 | inactive: -14.4%
COc1ccc(OC)c(S(=O)(=O)NCCc2csc3nc(-c4ccccc4)nn23)c1 | inactive: 2.82%
Cc1cccc(N2CCN(C(=O)c3ccc4c(c3)c(C)c(C)n4C)CC2C)c1 (stereo unspecified) | inactive: -4.32%
Cc1ccc(NC(=O)c2cc(S(=O)(=O)N3CCCC3)c[nH]2)c(C)c1 | inactive: -13.7%
COc1ccccc1N1CCN(c2cc(C)nc3nc(-c4ccc(Cl)cc4)nn23)CC1 | inactive: 0.907%
CCc1ccc(-n2nc(C)c3c(C(=O)Nc4cc(C)ccc4C)cc(C)nc32)cc1 | inactive: -2.08%
CCOc1ccc(N(CC)S(=O)(=O)N2CCCC(C(=O)NCCc3ccccc3OC)C2)cc1 (stereo unspecified) | inactive: -19%
CC1CCCCN1C(=O)CSc1nnc(-c2ccccc2Cl)o1 (stereo unspecified) | inactive: 0.394%
